Measurements reported in the supplement of paper PMC10126150.
Values marked as one replicate rest on one cluster of the flow cell; about a third of the high ones do not repeat.

Tested on: ATP
Assay: switch fluorescence ratio, 500 uM ATP over buffer (Cy3 cluster intensity, sum of 5 cycles each) (fold (ratio)); higher = stronger signal-on switching upon ATP binding; sequences stand for … in TCGTCGGCAGCGTCAGATGTGTATAAGAGACAGTTTTTTTTTTTTTTTTTTTTTTTTT…TC
Conditions: aptamer strand: ATP DNA aptamer (quencher-CACCTGGGGGAGTATTGCGGAGGAAGG + anchor), 100 nM annealed; ATP concentration: 500 uM; one replicate
Method in brief: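 Per cluster, summed Cy3 intensity from the target cycles was divided by that from the buffer cycles to give the fluorescence ratio, then averaged per switch-domain sequence. Clusters outside 100-1000 RFU were excluded. The Cy3-labelled switching-strand clusters, on a modified Illumina MiSeq flow-cell, were annealed to 100 nM quencher-labelled ATP aptamer and imaged in selection buffer, then after 15 min with 500 uM ATP at 22 °C, for five cycles with NaOH stripping and re-annealing between them.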
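Further: ATP exposure 15 min at 22 °C before imaging.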

ATGGGTTCTC
switch fluorescence ratio: 0.96

GGGGGTGAGC
switch fluorescence ratio: 1.01

TTTAGTTC
switch fluorescence ratio: 0.944

ATTCAACGAT
switch fluorescence ratio: 1.04

CAGGTTAAAA
switch fluorescence ratio: 1.01

TGAATAAAGG
switch fluorescence ratio: 0.972

CAGCAAAATT
switch fluorescence ratio: 1.09

TAATTTGACT
switch fluorescence ratio: 1.01

GCTGATTTTG
switch fluorescence ratio: 1.02

GAACCTAGCG
switch fluorescence ratio: 1.06

TATTAAGAGA
switch fluorescence ratio: 0.974

GTGGCTATCC
switch fluorescence ratio: 1.02

GTATGTTAAT
switch fluorescence ratio: 0.955

GACGACCTGA
switch fluorescence ratio: 1.03

ATCACGGTTT
switch fluorescence ratio: 1.01

AGAATGTCAA
switch fluorescence ratio: 1.01

GATGTTAGTT
switch fluorescence ratio: 0.983

GCCACACTTC
switch fluorescence ratio: 1.02

TAGTCCACGC
switch fluorescence ratio: 1.04

GCCATCAGGG
switch fluorescence ratio: 1.1

AGATGGAATA
switch fluorescence ratio: 1.01

TGTGGAACGC
switch fluorescence ratio: 1.01

CTGAGAAAAT
switch fluorescence ratio: 0.969

ACAGACCTTT
switch fluorescence ratio: 1.15

TGCTGGAGGT
switch fluorescence ratio: 1.01

TGTTGGTCGG
switch fluorescence ratio: 0.969

AAAGTATCAT
switch fluorescence ratio: 1

TAGGGCATTA
switch fluorescence ratio: 1.11

AGGTCGTCC
switch fluorescence ratio: 1.03

GCGCCCGGTC
switch fluorescence ratio: 1.06

GAAGTAATAT
switch fluorescence ratio: 2.2

TTAAATATGA
switch fluorescence ratio: 0.965

GCGATAAGTA
switch fluorescence ratio: 0.985

GCTTCGGTAC
switch fluorescence ratio: 4.12

TCGGAATGAT
switch fluorescence ratio: 1.04

TACAGGAA
switch fluorescence ratio: 1.01

ATTGTGAGGC
switch fluorescence ratio: 1.42

ATAGGATGGG
switch fluorescence ratio: 0.919

AAAGTTCTGA
switch fluorescence ratio: 1.01

AAGAAGGCAA
switch fluorescence ratio: 1.09

CAAGGTATTA
switch fluorescence ratio: 0.999

ACTGATTGAC
switch fluorescence ratio: 1.07

GAACGCCGGG
switch fluorescence ratio: 1.03

TTAAAGATTC
switch fluorescence ratio: 1.03

AACTTGCTCT
switch fluorescence ratio: 1.07

CTCTAACCTA
switch fluorescence ratio: 1.03

GCACCTGGGG
switch fluorescence ratio: 1.01

TAGTGATGTG
switch fluorescence ratio: 0.968

CGTGCTATTA
switch fluorescence ratio: 1.02

TCGGGAAATC
switch fluorescence ratio: 1.05

CGTCGCTATT
switch fluorescence ratio: 1.29

ATGGACTTGG
switch fluorescence ratio: 1.03

TTGCATGATA
switch fluorescence ratio: 1.03

AATAATTTGC
switch fluorescence ratio: 0.99

CTAGATGCTG
switch fluorescence ratio: 1.2

TTTTTGTACA
switch fluorescence ratio: 1.02

CTGGTCCGTT
switch fluorescence ratio: 1.05

AGATTTTAAA
switch fluorescence ratio: 0.954

CACCCTGGCG
switch fluorescence ratio: 1.16

GCGGAAATGG
switch fluorescence ratio: 1.01

GAGCGATAAA
switch fluorescence ratio: 1.02

GACGGCTAGC
switch fluorescence ratio: 1.02

TATTGAAACG
switch fluorescence ratio: 1.01

GGTAAACTCG
switch fluorescence ratio: 0.966

TTTATACAAA
switch fluorescence ratio: 0.997

GCCGGGCGGA
switch fluorescence ratio: 0.997

TTAACCACC
switch fluorescence ratio: 1.2

TCGGCGGCAG
switch fluorescence ratio: 1

CAGTTACTAT
switch fluorescence ratio: 1.04

ATACACCTTT
switch fluorescence ratio: 1.38

CAGTCATCTC
switch fluorescence ratio: 0.964

CTTTGGTGGA
switch fluorescence ratio: 1.02

TTGTTGGACT
switch fluorescence ratio: 0.948

CGGCCGGGG
switch fluorescence ratio: 0.985

GATTCCTAAT
switch fluorescence ratio: 1.02

ACTATGCACT
switch fluorescence ratio: 1.11

ATTTGAGCAA
switch fluorescence ratio: 1.57

AGATTAAAAA
switch fluorescence ratio: 1.1

TGCTATCTAG
switch fluorescence ratio: 1.01

AAGTCCTTCA
switch fluorescence ratio: 1.33

GCCTAAATTT
switch fluorescence ratio: 1

ACAAGGATGC
switch fluorescence ratio: 1.03

CCGAAGTGAG
switch fluorescence ratio: 3.24

GTTGGCGCA
switch fluorescence ratio: 0.99

CTCTACACCA
switch fluorescence ratio: 1.09

CTGTTGAGAG
switch fluorescence ratio: 0.974

CAAAATTTG
switch fluorescence ratio: 0.974

TTGAAGAGTT
switch fluorescence ratio: 1.03

TTATCGATTA
switch fluorescence ratio: 0.99

CGCATATTAG
switch fluorescence ratio: 1.87

TCCAACTTTG
switch fluorescence ratio: 0.938

GCGATACGA
switch fluorescence ratio: 6.32

TACTAGAGCT
switch fluorescence ratio: 0.956

TTGAAAGTTG
switch fluorescence ratio: 1.11

AAAATCAGTC
switch fluorescence ratio: 1.07

GAAGTACAG
switch fluorescence ratio: 1.21

AAAAGGTTGC
switch fluorescence ratio: 0.961

TCTATAATTT
switch fluorescence ratio: 1.04

AAGCGGCTTT
switch fluorescence ratio: 0.907

TGGATCCCGT
switch fluorescence ratio: 1.06

CGTGGACCAT
switch fluorescence ratio: 1.02

AATACCCCTA
switch fluorescence ratio: 1.15

AGTTTAGTTT
switch fluorescence ratio: 0.992

GTAATCGGCC
switch fluorescence ratio: 1.07

TACGTGGTCA
switch fluorescence ratio: 0.958

CCCCTGTAGC
switch fluorescence ratio: 1.33

TTTTAACAAC
switch fluorescence ratio: 1.05

ACGTCACGCC
switch fluorescence ratio: 1.59

CGGAGGTCTT
switch fluorescence ratio: 0.975

ATTAGCACGC
switch fluorescence ratio: 1.04

CCTTGGGCCC
switch fluorescence ratio: 0.986

AACGTTAAAA
switch fluorescence ratio: 1.07

CTACAAGAAG
switch fluorescence ratio: 1.06

AAGCGTCACG
switch fluorescence ratio: 1.03

TTAGCATCA
switch fluorescence ratio: 1

CGGAGGTTT
switch fluorescence ratio: 1.06

ACAGTGGACC
switch fluorescence ratio: 1.08

TTGATACCTT
switch fluorescence ratio: 1.17

CATGCTTAGT
switch fluorescence ratio: 1.02

AGATTAGACA
switch fluorescence ratio: 0.971

ACGGAGGACA
switch fluorescence ratio: 1.05

GCATGACTAC
switch fluorescence ratio: 1.42

ATAATGCACC
switch fluorescence ratio: 1.08

TTGAATAAGT
switch fluorescence ratio: 1.01

AGCATCTTGC
switch fluorescence ratio: 0.969

AGTAATACAC
switch fluorescence ratio: 1.26

GCTTTGCCTT
switch fluorescence ratio: 1.04

GGGGCGTTCT
switch fluorescence ratio: 1.08

GATTATGGAC
switch fluorescence ratio: 1.03

TTCTTATTCG
switch fluorescence ratio: 0.98

GCTTATAGGA
switch fluorescence ratio: 1

AGGTTTTCAC
switch fluorescence ratio: 0.999

GGCGATTGTT
switch fluorescence ratio: 0.984

ATGCGGGGGA
switch fluorescence ratio: 1.01

AGGGGTCTTC
switch fluorescence ratio: 0.993

ATAAATGCTT
switch fluorescence ratio: 0.99

GGCGCCGGG
switch fluorescence ratio: 1

GCCGGCAGAA
switch fluorescence ratio: 0.99

AAAGCCCGTT
switch fluorescence ratio: 1.01

TGATGGTGAA
switch fluorescence ratio: 0.992

TATTTGAGCC
switch fluorescence ratio: 1

GATTTAAGGA
switch fluorescence ratio: 1.03

ACTGAAGGGT
switch fluorescence ratio: 0.961

TTCGAGGAAA
switch fluorescence ratio: 0.98

TTTCGCATCG
switch fluorescence ratio: 1.03

CTGTGAATTT
switch fluorescence ratio: 0.955

GCATTGTCAC
switch fluorescence ratio: 1.03

GATTATGAG
switch fluorescence ratio: 1

ACTCGTCGCG
switch fluorescence ratio: 1.06

TTAGCCAGGA
switch fluorescence ratio: 0.98

ACGCCCCAA
switch fluorescence ratio: 1.27

CTCTTCAAGA
switch fluorescence ratio: 1.02

TGGGTGTCGA
switch fluorescence ratio: 1.03

TAGCGCCCAG
switch fluorescence ratio: 1

ATAGGCAGAC
switch fluorescence ratio: 1.13

CATATTCATT
switch fluorescence ratio: 0.999

CGAATCTGTT
switch fluorescence ratio: 0.987
